Out of some 39,000 compounds screened, about 220 (0.56%) showed activity. The list shows a part of the results.
Tested on: Escherichia coli K-12 BW25113
Test: relative growth (OD600 normalised to plate interquartile mean) (fraction); higher = less growth inhibition, active = 0.2 or less
Details: 50 µM; LB; incubation time: overnight (16-24 h)
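Further: static incubation at 37 °C against the wild-type strain, values averaged over two biological replicates.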

Compound	relative growth
C[C@H](CO)N1C[C@H](C)[C@H](CN(C)Cc2ccc(C(=O)O)cc2)Oc2c(NC(=O)Nc3cccc4ccccc34)cccc2C1=O	inactive: 0.986
O=C(C[C@@H]1CC[C@@H]2[C@H](COC[C@H](O)CN2S(=O)(=O)c2ccccc2)O1)NCc1ccc2c(c1)OCO2	inactive: 0.99
COc1ccc2oc(C(C)=O)cc2c1	inactive: 1
C[C@H]1CN([C@@H](C)CO)C(=O)c2cccc(NC(=O)C3CC3)c2O[C@H]1CN(C)Cc1ccc2c(c1)OCO2	inactive: 0.963
C[C@H]1CCCCO[C@H](CN(C)Cc2ccc3c(c2)OCO3)[C@@H](C)CN([C@@H](C)CO)C(=O)c2cc(NC(=O)Nc3cccc4ccccc34)ccc2O1	inactive: 1.01
COc1ccc(NC(=O)N(C)C[C@H]2OCCCC[C@@H](C)Oc3ccc(NC(=O)NC(C)C)cc3C(=O)N([C@H](C)CO)C[C@@H]2C)cc1	inactive: 1.01
CC(C)NC(=O)NCC[C@H]1CC[C@H](NC(=O)CN(C)C)[C@H](CO)O1	inactive: 0.97
Cc1cccc(S(=O)(=O)N2C[C@H](O)COC[C@H]3O[C@@H](CC(=O)NCc4ccc5c(c4)OCO5)CC[C@@H]32)c1	inactive: 1
Cc1ccc(S(=O)(=O)N(C)C[C@@H]2Oc3ccc(NC(=O)CCN4CCOCC4)cc3C(=O)N([C@H](C)CO)C[C@H]2C)cc1	inactive: 0.994
C[C@H](CO)N1C[C@H](C)[C@H](CN(C)Cc2ccc(C(F)(F)F)cc2)Oc2ccc(NC(=O)Nc3cccc4ccccc34)cc2CC1=O	inactive: 1.01
C[C@@H]1CN([C@@H](C)CO)C(=O)c2cc(C#Cc3ccccn3)cnc2O[C@H]1CN(C)C(=O)c1cnccn1	inactive: 0.977
C[C@@H]1CCCCO[C@H](CN(C)C(=O)Nc2ccccc2)[C@H](C)CN([C@H](C)CO)C(=O)c2cc(NC(=O)Nc3ccc(F)cc3)ccc2O1	inactive: 1.04
C[C@@H]1CCCCO[C@H](CN(C)C(=O)Nc2ccc(C(F)(F)F)cc2)[C@H](C)CN([C@H](C)CO)C(=O)c2cc(N(C)C)ccc2O1	inactive: 1.03
C[C@@H]1CN([C@H](C)CO)C(=O)c2cc(-c3ccc(F)cc3)cnc2O[C@H]1CN(C)C(=O)Cc1ccccn1	inactive: 0.992
O=C(O)c1cccnc1	inactive: 1.19
CC(=O)OCC(=O)C1(O)C(C)CC2C3CCC4=CC(=O)C=CC4(C)C3(F)C(O)CC21C (stereo not drawn)	inactive: 1.11
C[C@@H]1CN([C@H](C)CO)C(=O)CCCn2cc(nn2)CO[C@H]1CN(C)C(=O)c1cc(-c2ccccc2)on1	inactive: 0.992
C[C@@H]1CCCCO[C@@H](CN(C)C(=O)Nc2ccccc2)[C@@H](C)CN([C@@H](C)CO)C(=O)c2cc(NS(=O)(=O)c3ccc(Cl)cc3)ccc2O1	inactive: 0.99
C[C@H](CO)N1C[C@H](C)[C@H](CN(C)Cc2ccc(C(F)(F)F)cc2)Oc2ccc(NC(=O)Nc3ccccc3)cc2CC1=O	inactive: 1.02
COC(=O)c1cn(CC(=O)O)nn1	inactive: 0.978
COc1ccc(S(=O)(=O)N(C)C[C@H]2Oc3ccc(NC(=O)c4ccncc4)cc3CC(=O)N([C@@H](C)CO)C[C@H]2C)cc1	inactive: 1.01

Compound	relative growth
COc1cccc(NC(=O)N[C@H]2CC[C@@H](CC(=O)N3CCOCC3)O[C@H]2CO)c1	inactive: 0.991
CC(C)=C[C@H]1[C@@H](c2nc3ccc(Br)cc3[nH]2)C1(C)C	inactive: 0.954
CCS(=O)(=O)N1CC[C@]2(CC1)CN(Cc1ccc(cc1)OC)[C@H](CO)c1c2c2ccc(cc2n1C)OC	inactive: 1
C[C@H]1CCCCO[C@H](CN(C)S(=O)(=O)c2ccc(Cl)cc2)[C@@H](C)CN([C@@H](C)CO)C(=O)c2cc(NC(=O)Nc3ccccc3)ccc2O1	inactive: 1.02
C[C@H]1CN([C@@H](C)CO)C(=O)c2cc(C#CC(C)(C)O)cnc2O[C@@H]1CN(C)C(=O)CN(C)C	inactive: 1
COCCOC(=O)N1C(=O)[C@@]2(c3cc(C#Cc4ccc(OC)cc4)ccc31)[C@H](c1ccccc1OCCO)N1[C@H](c3ccccc3)[C@H](c3ccccc3)OC(=O)[C@H]1[C@@H]2C(=O)N1CCN(c2ncccn2)CC1	inactive: 1.08
CC(=O)N(C[C@@H](O)CO)c1c(I)c(C(=O)NCCO)c(I)c(C(=O)NC[C@@H](O)CO)c1I	inactive: 0.979
C[C@H](CO)N1C[C@H](C)[C@H](CN(C)Cc2ccc(Oc3ccccc3)cc2)Oc2c(NC(=O)Nc3ccc4c(c3)OCO4)cccc2C1=O	inactive: 0.999
O=C1C(NS(=O)(=O)c2ccc(Br)cc2)=C(c2ccc(OC(F)(F)F)cc2)C(=O)c2ccccc21	inactive: 0.968
Cc1cc(O)c(-c2ccc([C@@H](C)CN)cc2)c2c1[nH]c(=O)c1sccc12	inactive: 1.03
Cc1noc(C)c1S(=O)(=O)Nc1ccc2c(c1)CC(=O)N([C@@H](C)CO)C[C@@H](C)[C@@H](CN(C)S(=O)(=O)c1c(C)noc1C)O2	inactive: 0.991
C[C@H](O)C#Cc1cnc2c(c1)C(=O)N([C@@H](C)CO)C[C@H](C)[C@@H](CN(C)C(=O)Nc1ccc(C(F)(F)F)cc1)O2	inactive: 0.963
COc1ccc(CN(C)C[C@H]2OCCCC[C@@H](C)Oc3ccc(NS(=O)(=O)c4cccs4)cc3C(=O)N([C@@H](C)CO)C[C@H]2C)cc1	inactive: 0.978
C[C@H]1CN([C@@H](C)CO)C(=O)c2cc(NS(=O)(=O)c3cccs3)ccc2O[C@H]1CN(C)Cc1ccncc1	inactive: 0.986
COc1ccc(NC(=O)Nc2cccc3c2O[C@@H](CN(C)Cc2ccc(Oc4ccccc4)cc2)[C@H](C)CN([C@H](C)CO)C3=O)cc1	inactive: 1.02
Cc1[nH]c(N)nc(=O)c1CC(=O)O	inactive: 1.01
O=C(C[C@@H]1C=C[C@H](NC(=O)Cc2ccccn2)[C@H](CO)O1)NCCCN1CCOCC1	inactive: 1.01
CC(C)(C)[S@](=O)N1Cc2cc(C(=O)NCc3ccc4c(c3)OCO4)nc(-c3cccc(-c4ccncc4)c3)c2[C@@H]1CCO	inactive: 1.01
Cc1ccc(S(=O)(=O)N(C)C[C@H]2OCCCC[C@H](C)Oc3ccc(NC(=O)Nc4ccccc4)cc3C(=O)N([C@@H](C)CO)C[C@H]2C)cc1	inactive: 1.02
COC(=O)c1ccc[nH]1	inactive: 1.02
C[C@@H]1CN([C@H](C)CO)C(=O)CCCn2nncc2CO[C@@H]1CN(C)S(C)(=O)=O	inactive: 1.01

Compound	relative growth
Cc1ccc(S(=O)(=O)Nc2ccc3c(c2)C(=O)N([C@@H](C)CO)C[C@@H](C)[C@@H](CN(C)Cc2ccncc2)OCCCC[C@@H](C)O3)cc1	inactive: 1.02
C[C@H](O)C#Cc1ccc2c(c1)O[C@@H](CN(C)C(=O)Cc1ccccn1)[C@@H](C)CN([C@H](C)CO)S2(=O)=O	inactive: 1.01
O=C(C[C@H]1C=C[C@H](NC(=O)CN2CCOCC2)[C@@H](CO)O1)NC1CCCCC1	inactive: 0.978
C[C@H]1CCCCO[C@@H](CN(C)C)[C@@H](C)CN([C@@H](C)CO)C(=O)c2cc(NC(=O)Nc3ccc(C(F)(F)F)cc3)ccc2O1	inactive: 0.934
COC(=O)CCCCCCC(=O)N/N=C/[C@H](O)[C@@H](O)[C@@H](O)[C@H](O)C(=O)O	inactive: 0.977
O=C(C[C@@H]1C=C[C@H](NC(=O)c2ccncc2)[C@@H](CO)O1)NCc1ccncn1	inactive: 0.988
CN(C)C(=O)c1cccc(-c2cccc(-c3nc(C(=O)N4CCCCC4)cc4c3[C@H](CCO)N([S@@](=O)C(C)(C)C)C4)c2)c1	inactive: 0.824
C[C@@H]1CN([C@H](C)CO)C(=O)c2cc(NC(=O)Nc3ccc(F)cc3)ccc2O[C@@H](C)CCCCO[C@H]1CN(C)C(=O)C1CCCCC1	inactive: 1.01
O=C(Nc1ccc([N+](=O)[O-])cc1Cl)c1cc(Cl)ccc1O	inactive: 0.88
O=C1CCC(=O)N1Nc1ccccn1	inactive: 0.821
COc1cc(OC)c(C(=O)CCCN2CCCC2)c(OC)c1.Cl	inactive: 1.04
Cc1cc(C(=O)Nc2cccc3c2O[C@H](CN(C)S(=O)(=O)c2cccs2)[C@@H](C)CN([C@@H](C)CO)C3=O)n(C)n1	inactive: 1.02
CN(C)CCCNc1ncnc(N)c1[N+](=O)[O-]	inactive: 0.985
CC(C)NC(=O)Nc1ccc2c(c1)C(=O)N(C)[C@H]1CC[C@@H](CC(=O)NCc3ccc(F)cc3)O[C@@H]1CO2	inactive: 1
O=C(O)[C@H]1C2C(=O)N3CCCO[C@@H]3[C@]23C=C[C@H]1O3 (stereo partly drawn)	inactive: 1
Cc1ccc(NC(=O)C[C@H]2NCCNC2=O)cc1	inactive: 0.944
Cc1noc(C)c1NC(=O)N(C)C[C@@H]1Oc2ccc(NC(=O)CCCN(C)C)cc2C(=O)N([C@H](C)CO)C[C@H]1C	inactive: 1.01
C[C@@H]1CN([C@H](C)CO)C(=O)c2cccc(NC(=O)c3ccncc3)c2O[C@H]1CN(C)S(=O)(=O)c1ccccc1	inactive: 1
C[C@@H]1CN([C@H](C)CO)C(=O)c2cccc(NS(C)(=O)=O)c2O[C@@H]1CN(C)Cc1ccc2c(c1)OCO2	inactive: 0.995
COCCOC(=O)N1C(=O)[C@@]2(c3cc(C#CCCO)ccc31)[C@H](C(=O)N1CCc3cc(OC)c(OC)cc3C1)[C@H]1C(=O)O[C@H](c3ccccc3)[C@H](c3ccccc3)N1[C@@H]2c1ccccc1OCCO	inactive: 1.04
C[C@H](CO)N1C[C@H](C)[C@H](CN(C)C(=O)Cc2ccncc2)Oc2ncc(C#CC3(O)CCCC3)cc2C1=O	inactive: 0.979
